Test results: PubChem BioAssay AID493208 (National Center for Advancing Translational Sciences (NCATS), 2011)
In all, about 44,000 compounds went through this assay and about 340 (0.77%) were called active. Another 5% or so got no clear call; they are omitted. The call rests on the fitted dose curve; in most records, active means well fitted inhibition curve with a large enough effect; inconclusive means small, poorly fitted or top-dose-only effect; inactive means flat fitted curve, though single readings scatter. The list shows a part of the results.

Experiment: Acumen qHTS Assay for Inhibitors of the mTORC1 Signaling Pathway in MEF (Tsc2-/-, p53-/-) Cells: Sytravon;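 further: plate controls were DMSO for no effect and rapamycin for full effect; nearly all actives have a fitted effect of over 50% in size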
Details: phospho-rpS6 immunofluorescence/PI, 24 h; series mostly up to 38.3 µM; activity change, negative = inhibition: at the top concentration
Procedure, shortened: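 Compounds act on Tsc2-/-, p53-/- fibroblasts carrying an empty vector for 24 h before fixation and dual staining for phospho-S6 and DNA (propidium iodide). Values are percentages of cells above a rapamycin-defined pS6/PI threshold.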

Activity change, negative = inhibition, inactive:
CCOc1ccc(Nc2ncnc3c2nc2n3CCCC2)cc1 0.585%
CCOC(=O)c1c(C)[nH]c(C)c1S(=O)(=O)N1CCCC(C(=O)Nc2ccc(C)cn2)C1 (configuration not stated) -3.57%
CCc1ccccc1Nc1nn2c(=O)c3ccc(C(=O)NCc4ccccc4OC)cc3nc2s1 -0.826%
CCN(c1ccccc1)c1ccc2cc(S(=O)(=O)N3CCCC3)ccc2n1 -5.88%
Cc1ccc(-n2nc(CO)c(C(=O)NCCCc3ccccc3)n2)cc1C 0.833%
COc1ccccc1Cn1cc(C(=O)c2ccc(C)cc2)c(=O)c2cc(C)ccc21 -14.4%
CCOc1ccccc1CNC(=O)c1c(C)oc2ncnc(N3CCOCC3)c12 -3.42%
CCOc1ccc(NC(=O)CSc2ccc(-c3sc(-c4ccccc4)nc3C)nn2)cc1 2.45%
CCOc1ccc2nc(Cl)c(C3CC(c4ccc(OC)cc4)=NN3S(C)(=O)=O)cc2c1 (configuration not stated) 1.2%
CCOC(=O)CNC(=O)Nc1cc(C(=O)NCc2ccccc2OC)ccc1N1CCCC1 0.967%
CCOC(=O)c1oc2ccc(S(=O)(=O)n3nc(-c4cc(OC)c(OC)c(OC)c4)cc3N)cc2c1C -14.8%
Cc1ccccc1C(=O)NC1(C(F)(F)F)N=C(c2ccccc2)N(C2CCCCC2)C1=O (configuration not stated) -8.93%
CC(C)C(=O)Nc1ccccc1OCc1cc(=O)n2ccccc2n1 -24.6%
CCOc1ccc(NC(=O)C2CCCN(c3ccc(Sc4ccc(C)cc4)nn3)C2)cc1 (configuration not stated) -12%
COC(=O)C(CCSC)NC(=O)c1cc2c(n(-c3ccc(Cl)cc3)c1=O)CCCC2=O (configuration not stated) 0.131%
O=C(NC(=O)c1ccccc1)Nc1ccc(-c2cc(C(F)(F)F)nn2-c2ccccc2)cc1 -0.797%
CCC(Oc1ccccc1F)C(=O)N1CCC(c2nc3ccccc3s2)CC1 (configuration not stated) -0.58%
COc1ccc(Cl)cc1NC(=O)C1CCCN(c2ncnc3onc(C)c23)C1 (configuration not stated) -0.115%
CCCn1c(CNC(=O)c2ccc(F)cc2)nc2ccccc21 6.82%
Cc1ccc2oc(-c3ccc(C)c(NC(=O)c4ccc(N5CCC(C)CC5)c([N+](=O)[O-])c4)c3)nc2c1 -8.38%
O=C(CCCN1C(=O)C(c2ccccc2)Oc2cccnc21)Nc1ccccc1C(F)(F)F (configuration not stated) -5.76%
Cc1cccc(NC(=O)c2ccc3snnc3c2)c1C -12.4%
O=c1c2cc3c(cc2n(Cc2ccc(F)cc2)c(=O)n1Cc1nc(-c2ccccc2)no1)OCO3 -7.57%
CC(C)CN(CCCNC(=O)CN1N=C(c2ccc(Cl)cc2)CCC1=O)CC(C)C 9.49%
Clc1ccc2c(c1)NC(c1ccncc1)=NC(c1cccs1)=N2 4.91%
COc1ccc2c(c1)CCc1c(C(=O)Nc3c(C)nn(Cc4ccccc4C)c3C)noc1-2 -3.86%
CCOc1ccccc1NC(=O)C(CC(C)C)NS(=O)(=O)c1ccc2c(c1)oc(=O)n2C (configuration not stated) -0.429%
COc1cc(CNC(=O)c2ccc3nc(CCc4ccccc4)oc3c2)cc(OC)c1OC 0.394%
COC(=O)c1c(SC)nc2ccccc2c1OCc1ccc(Cl)cc1 -4.26%
CNS(=O)(=O)c1cn(CC(=O)N2CCN(c3cccc(C)c3C)CC2)cc1S(=O)(=O)NC -2.96%
O=c1cc(-c2ccccc2)nc(SCc2nc(-c3ccc(Cl)cc3)no2)[nH]1 3.36%
Cc1ccc(S(=O)(=O)N(Cc2nc(-c3cccc(C)c3)no2)C2CCCCC2)cc1 -24.1%
O=C(COCc1cc(-c2ccc3c(c2)OCO3)on1)N1CCN(c2cccc(Cl)c2)CC1 -14.5%
CCN1CCN(C(=O)c2cnn(-c3cccc(Cl)c3)c2C2CCN(C(=O)OC(C)(C)C)CC2)CC1 2.47%
CSC1=NC2(CCN(C(=O)NC3CCCCC3)CC2)N=C1c1ccc(C)cc1 3.37%
COc1ccc(N2Cc3cccc(C(=O)Nc4cc(C)cc(C)c4)c3C2=O)cc1 2.39%
O=C(C1COc2ccccc2O1)N1CCN(c2nc3ccc(F)cc3s2)CC1 (configuration not stated) 0.293%
Cc1noc(-c2ccc(-c3noc(-c4cccc(F)c4)n3)cc2)n1 -1.24%
NC(=O)C1CCN(C(=O)c2cccc(NC(=O)c3nsc4ccccc34)c2)CC1 11.5%
Cc1cc(F)ccc1NC(=O)CCS(=O)(=O)c1ccc2c(c1)CC(C)N2C(=O)C1CC1 (configuration not stated) -7.48%
Cn1c(=O)c2c(nc(SCC(=O)Nc3ccccc3)n2Cc2ccccc2F)n(C)c1=O -0.154%
Nc1c(C(=O)Nc2ccc(OC(F)(F)F)cc2)nnn1Cc1ccccc1 14.7%
CCOc1ccc(CNC(=O)CSc2cc(=O)n(CC)c3ccccc23)cc1 -0.758%
CCN(CC)S(=O)(=O)c1nnc(NC(=O)COc2ccccc2F)s1 6.04%
CCc1cccc(C)c1Nc1c(-c2ccccc2)nc2sccn12 -15%
Fc1ccc(CNc2ncnc3onc(-c4ccc(F)cc4)c23)cc1 -5.49%
CCc1c(CN2CCN(c3cccc(C)c3C)CC2)csc1C 3.45%
Cc1ccc(C#N)c(=O)n1CC(=O)Nc1ccccc1C(F)(F)F -1.11%
O=C(C1COc2ccccc2O1)N(Cc1cccnc1)c1nc2ccc(Cl)cc2s1 (configuration not stated) 2.72%
O=C(NC1CCCCC1)c1ccc(Cn2c(SCc3ccc(F)cc3)nc3cccnc32)cc1 0%
Cc1ccc2c(c1)-c1onc(C(=O)N3CCN(c4ccc(Cl)cc4)CC3)c1CO2 -0.721%
CCOC(=O)N1CCN(Cc2nc3cc(NC(=O)c4ccccc4[N+](=O)[O-])ccc3n2C(C)C)CC1 0.63%
Cc1ccc(-n2c3nc(=O)[nH]c(=O)c-3cc3c(C)nn(-c4ccccc4)c32)cc1Cl -0.501%
Cc1cccc(C)c1NC(=O)NCCc1c[nH]c2ccccc12 -10.8%
CCCNC(=O)C1CCC(Cn2c(=O)c3sccc3n(Cc3ccccc3F)c2=O)CC1 (configuration not stated) 3.81%
COc1ccccc1CNC(=O)CCn1nc(C)c2c(C)n(-c3ccccc3)nc2c1=O 0.0831%
Brc1ccc(-c2nc3ccccn3c2Nc2ccc3c(c2)OCCO3)o1 5.94%
O=S(=O)(c1ccccc1)c1nnn2c1nc(NCc1ccc(F)cc1)c1sccc12 1.07%
Cc1oc(-c2ccc(Cl)cc2)nc1CS(=O)CC(=O)N1CCN(c2cccc(C(F)(F)F)c2)CC1 (configuration not stated) -0.854%
COc1cccc(N2CCN(c3ncnc4c3nc3n4CCCCC3)CC2)c1 2.29%
CCCCN(CC)C(=O)CSc1nc2n[nH]c(C)c2c(=N)n1-c1cccc(OC)c1 -10.5%
CCOC(=O)c1c(S(=O)(=O)N2CCC(C(=O)NCc3ccc(F)cc3)CC2)c(C)n(C)c1C -2.8%
